This experiment has as its system Trichoderma virens ATCC 9645. In words: growth yield (OD600) relative to untreated control; higher = less growth inhibition. The settings on record: compound concentration: 100 uM. A digest of the protocol:
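A biocide at 200 ng ml^−1 was co-applied to some wells, and library compounds were present in all test wells at 100 μM final. The wells held 100 μl of Trichoderma virens ATCC 9645 spores at 15,000 spores ml^−1 in potato dextrose broth, grown at 30 °C in 96-well plates, with OD600 read at 40 h and 72 h. Results are relative growth against the control without either agent, averaged across duplicate screens.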

The results in this text go back to the supplement of paper PMC8007513.

Counter-ions that a name gives are not always drawn. ± gives the standard error. In all, about 1,300 compounds went through this assay and about 75 (6%) showed an effect of 50% or more. The list shows a part of the results.

For the compound `COCCCOc1ccnc(C[S+]([O-])c2nc3ccccc3[nH]2)c1C` (stereo not given) [Rabeprazole Sodium salt], the growth yield (40 h) was 99.6 ± 3.6% and the growth yield (72 h) came out at 98.3 ± 3.2%.

The compound `O=C(O)Cc1cc(I)c(Oc2ccc(O)c(I)c2)c(I)c1` [Tiratricol, 3,3',5-triiodothyroacetic acid] returned a growth yield (40 h) of 28.9 ± 16% and a growth yield (72 h) of 46.6 ± 17%.

Regarding `CNCC[C@@H](Oc1ccccc1C)c1ccccc1` [Tomoxetine hydrochloride], the growth yield (40 h) turned out to be 97.69 ± 0.79% and the growth yield (72 h) was 100.8 ± 0.52%.

Regarding `O=C(CCCCC(=O)Nc1c(I)cc(I)c(C(=O)O)c1I)Nc1c(I)cc(I)c(C(=O)O)c1I` [Iodipamide], the growth yield is 103 ± 1.1% (40 h) and 101.6 ± 0.32% (72 h).

Turning to `CC(C)(C)NCC(O)COc1cccc2c1CC(O)C(O)C2` (stereo not given) [Nadolol], the growth yield was 105 ± 4.1% (40 h) and 100 ± 2.6% (72 h).

As to `CCOCCn1c(N2CCCN(C)CC2)nc2ccccc21` [Emedastine], the growth yield runs as follows: (40 h) 98.96 ± 0.16%; (72 h) 96.9 ± 2.7%.

Turning to `CC[C@H](C)C(=O)O[C@H]1C[C@H](O)C=C2C=C[C@H](C)[C@H](CC[C@@H](O)C[C@@H](O)CC(=O)O)[C@H]21` [Pravastatin], the growth yield runs as follows: (40 h) 94.2 ± 9.4%; (72 h) 93.3%.

In the case of `Cc1cccn2c(=O)c(-c3nnn[nH]3)cnc12` [Pemirolast potassium], the growth yield is 95.1 ± 1.1% (40 h) and 98.7 ± 3.2% (72 h).

`Cc1nccn1CC1CCc2c(c3ccccc3n2C)C1=O` (stereo not given) [Ondansetron Hydrochloride] displayed a growth yield (40 h) of 106 ± 3.3% and a growth yield (72 h) of 103.1 ± 0.94%.

As for `CC(=O)NC[C@H]1CN(c2ccc(N3CCOCC3)c(F)c2)C(=O)O1` [Linezolid], the growth yield (40 h) was found to be 110 ± 15% and the growth yield (72 h) was 110 ± 12%.

As for `COc1ccc2c(c1)c(CC(=O)OCC(=O)O)c(C)n2C(=O)c1ccc(Cl)cc1` [Acemetacin], the growth yield stood at 84.5 ± 0.32% (40 h) and 84.6 ± 1.6% (72 h).

On to `CC[C@@]1(O)C(=O)OCc2c1cc1n(c2=O)Cc2cc3c(CN(C)C)c(O)ccc3nc2-1` [Topotecan], for which the growth yield runs as follows: (40 h) 94.5 ± 2.4%; (72 h) 88.7 ± 2.9%.

As for `Nc1nnc(-c2cccc(Cl)c2Cl)c(N)n1` [Lamotrigine], the growth yield is, setting by setting: (40 h) 110 ± 2.1%; (72 h) 110 ± 0.52%.

`Nc1nc(=O)[nH]cc1F` [Flucytosine]: the growth yield (40 h) turned out to be 97.8 ± 4.8% and the growth yield (72 h) came out at 96.4 ± 1.8%.

As for `Clc1cc(Cl)c(OCC#CI)cc1Cl` [Haloprogin], the growth yield reads like this: (40 h) 6.04 ± 1.6%; (72 h) 5.14 ± 0.73%.

`Cc1cccc(C)c1NC(=O)CN1CCN(CCCC(c2ccc(F)cc2)c2ccc(F)cc2)CC1` [Lidoflazine]: the growth yield is, setting by setting: (40 h) 95.6 ± 1.3%; (72 h) 114 ± 3%.

In the case of `CC(=O)O[C@]1(C(C)=O)CC[C@H]2[C@@H]3C=C(C)C4=CC(=O)CC[C@]4(C)[C@H]3CC[C@@]21C` [Megestrol acetate], the growth yield by setting is: (40 h) 93.2 ± 3%; (72 h) 90.09 ± 0.32%.

Turning to `CC(C)NC(=N)NC(=N)Nc1ccc(Cl)cc1` [Proguanil hydrochloride], the growth yield (40 h) worked out at 110 ± 13% and the growth yield (72 h) came out at 109 ± 9%.

The compound `COc1ccc2c3c1O[C@H]1C[C@@H](O)C=C[C@@]31CCN(C)C2` [Galanthamine hydrobromide] had a growth yield (40 h) of 102 ± 4% and a growth yield (72 h) of 99.8 ± 2.3%.

`Cc1nnc(SCC2=C(C(=O)O)N3C(=O)[C@@H](NC(=O)Cn4cnnn4)[C@H]3SC2)s1` [Cefazolin sodium salt] showed a growth yield (40 h) of 102 ± 4.3% and a growth yield (72 h) of 99.8 ± 1.9%.

Regarding `O=c1[nH]c(=O)n([C@H]2C[C@H](O)[C@@H](CO)O2)cc1C(F)(F)F` [Trifluridine], the growth yield (40 h) was determined as 109.9 ± 0.95% and the growth yield (72 h) was determined as 106 ± 1.1%.

For `CCCCCCCCNC(C)C(O)c1ccc(SC(C)C)cc1` (stereo not given) [Suloctidil], the growth yield came out at 59.9 ± 14% (40 h) and 96.6 ± 15% (72 h).

As to `CC(=O)CC(c1ccc([N+](=O)[O-])cc1)c1c(O)c2ccccc2oc1=O` (stereo not given) [Acenocoumarol], the growth yield (40 h) stood at 101 ± 3.3% and the growth yield (72 h) came out at 102 ± 2.2%.

Take `S=c1[nH]cnc2nc[nH]c12` [Mercaptopurine]: the growth yield came to 101 ± 1.8% (40 h) and 99.6 ± 3.1% (72 h).

As for `CN(Cc1ccc(C(C)(C)C)cc1)Cc1cccc2ccccc12` [Butenafine Hydrochloride], the growth yield worked out at 2.06 ± 1.4% (40 h) and 1.99 ± 1.1% (72 h).

Regarding `CC[N+](CC)(CC(=O)Nc1c(C)cccc1C)Cc1ccccc1` [Denatonium benzoate], the growth yield runs as follows: (40 h) 102 ± 5.1%; (72 h) 99.2 ± 2.9%.

Regarding `COc1cc(NS(=O)(=O)c2ccc(N)cc2)nc(OC)n1` [Sulfadimethoxine], the growth yield is, setting by setting: (40 h) 103 ± 1.6%; (72 h) 103 ± 5.3%.

For the compound `CC1(C)O[C@@H]2[C@@H](CO[C@@]3(COS(N)(=O)=O)OC(C)(C)O[C@@H]23)O1` [Topiramate], the growth yield runs as follows: (40 h) 105 ± 1.8%; (72 h) 102 ± 0.32%.

For the compound `CN(C)c1cc(NC(=O)CNC(C)(C)C)c(O)c2c1C[C@H]1C[C@H]3[C@H](N(C)C)C(O)=C(C(N)=O)C(=O)[C@@]3(O)C(O)=C1C2=O` [Tigecycline], the growth yield turned out to be 89.4 ± 2.1% (40 h) and 85.3 ± 1.8% (72 h).

Turning to `Cc1cccc(Nc2ccncc2S(=O)(=O)NC(=O)NC(C)C)c1` [Torsemide], the growth yield is 112 ± 8.7% (40 h) and 109 ± 2.1% (72 h).

`NC(=O)N1c2ccccc2CC(=O)c2ccccc21` [Oxcarbazepine] showed a growth yield (40 h) of 107 ± 4.6% and a growth yield (72 h) of 106 ± 4.2%.

With `CC(C)Cn1cnc2c(N)nc3ccccc3c21` [Imiquimod], the growth yield was determined as 110 ± 1.4% (40 h) and 104 ± 1.3% (72 h).

On to `NCCc1cc[nH]n1` [Betazole hydrochloride], for which the growth yield reads like this: (40 h) 103 ± 6.5%; (72 h) 101 ± 5.1%.

For `CCCNC(C)C(=O)Nc1c(C)csc1C(=O)OC` (stereo not given) [Articaine hydrochloride], the growth yield is, setting by setting: (40 h) 98.6 ± 1.8%; (72 h) 94.1 ± 3%.

`COc1cccc(N(C)C(=S)Oc2ccc3c(c2)CCCC3)n1` [Liranaftate]: the growth yield (40 h) was determined as 0% and the growth yield (72 h) came out at 0%.
